Reference: paper PMC4336329 (PLoS ONE, 2015)
The campaign covered roughly 310,000 compounds. About 2,200 (0.71%) showed an effect of 50% or more. Effects have a minus sign here. This is one part of the list.

These compounds were tested against human ether-à-go-go-related gene (hERG) potassium channel (human, UniProt Q12809) (assay: primary screen, population patch clamp on CHO cells stably expressing hERG).
human ether-à-go-go-related gene (hERG) potassium channel, sequence (Q12809 whole entry, looked up): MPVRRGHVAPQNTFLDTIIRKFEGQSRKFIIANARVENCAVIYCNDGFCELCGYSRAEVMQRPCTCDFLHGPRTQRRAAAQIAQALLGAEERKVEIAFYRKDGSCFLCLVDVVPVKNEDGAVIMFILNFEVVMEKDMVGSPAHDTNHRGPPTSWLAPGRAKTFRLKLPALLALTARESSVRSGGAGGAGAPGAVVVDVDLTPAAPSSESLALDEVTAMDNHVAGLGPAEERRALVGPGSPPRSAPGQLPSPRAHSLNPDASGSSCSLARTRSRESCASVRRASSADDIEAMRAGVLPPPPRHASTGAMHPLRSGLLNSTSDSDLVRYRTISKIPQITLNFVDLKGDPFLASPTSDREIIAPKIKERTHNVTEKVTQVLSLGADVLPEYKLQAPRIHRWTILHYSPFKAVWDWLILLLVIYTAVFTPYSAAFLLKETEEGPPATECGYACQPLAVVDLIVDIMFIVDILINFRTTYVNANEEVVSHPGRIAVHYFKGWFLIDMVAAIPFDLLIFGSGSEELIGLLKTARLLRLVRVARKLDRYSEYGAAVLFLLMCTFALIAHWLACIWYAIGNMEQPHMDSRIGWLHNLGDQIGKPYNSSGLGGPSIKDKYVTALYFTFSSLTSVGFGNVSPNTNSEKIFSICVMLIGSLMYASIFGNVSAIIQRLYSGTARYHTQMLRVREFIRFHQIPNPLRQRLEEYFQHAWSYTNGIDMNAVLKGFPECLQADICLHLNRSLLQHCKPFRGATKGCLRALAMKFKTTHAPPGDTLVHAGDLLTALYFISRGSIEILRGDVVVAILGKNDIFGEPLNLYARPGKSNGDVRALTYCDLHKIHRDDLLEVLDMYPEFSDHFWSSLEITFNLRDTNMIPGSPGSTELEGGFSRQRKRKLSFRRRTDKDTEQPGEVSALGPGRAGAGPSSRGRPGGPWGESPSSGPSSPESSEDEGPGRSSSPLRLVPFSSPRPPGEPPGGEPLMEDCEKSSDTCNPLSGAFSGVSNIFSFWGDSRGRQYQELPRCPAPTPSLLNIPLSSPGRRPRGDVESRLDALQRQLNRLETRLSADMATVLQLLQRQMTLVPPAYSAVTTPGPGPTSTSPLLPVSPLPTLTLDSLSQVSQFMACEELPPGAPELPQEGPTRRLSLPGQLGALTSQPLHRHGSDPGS

Row | Compound | hERG current change (%, negative = inhibition) at 1uM
1 | COC(=O)c1cn(C(=O)c2ccc(F)cc2)c2ccccc12 | 16.4%
2 | CC1CCCCC1NS(=O)(=O)c1ccc(S(=O)(=O)N2CCN(CCC#N)CC2)cc1 (stereo not drawn) | -3.14%
3 | CCS(=O)(=O)N1Cc2ccccc2CC1C(=O)N(C)Cc1ccc(OC)c(F)c1 (stereo not drawn) | 17.6%
4 | C[C@]12CC[C@H]3[C@@H](CC[C@]4(O)C[C@@H](O)CC[C@]34C=O)[C@@]1(O)CC[C@@H]2C1=CC(=O)OC1 | 14%
5 | Cc1cc(NC(=O)CCC(=O)N(CCC(C)C)C(C(=O)NC2CCCC2)c2ccccc2C)no1 (stereo not drawn) | -3.2%
6 | CC1=CC(C)(C(Cl)Cl)C(C)=CC1=O (stereo not drawn) | 11.8%
7 | COc1ccc2cc3cc(C(=O)N4CC(C)CC(C)C4)oc3nc2c1 (stereo not drawn) | 14.5%
8 | Cc1ccc2cc(CN(Cc3nnnn3C3CCCCC3)CC3CCCO3)c(=O)[nH]c2c1 (stereo not drawn) | 4.57%
9 | O=C(NC(=S)Nc1ccccc1[N+](=O)[O-])c1ccccc1 | 8.5%
10 | COCCNC(=O)c1sc2nc(-c3ccccc3)cn2c1C | 2.35%
11 | COc1ccc(Cc2nnc(NC(=O)CS(=O)(=O)c3ccc(C)cc3)s2)cc1OC | 15.8%
12 | CCS(=O)(=O)c1ncc(Cl)c(C(=O)Nc2ccc(S(=O)(=O)N(C)c3ccccc3)cc2)n1 | 11.9%
13 | CCNc1cc(N2CCN(S(=O)(=O)c3ccc4c(c3)CCCC4)CC2)ccc1[N+](=O)[O-] | -8.75%
14 | CCOC(=O)CCNC(=O)N1CCCC(C(=O)c2cccc(Cl)c2)C1 (stereo not drawn) | 4.58%
15 | O=C(CSC1=NCCS1)Nc1nc2c(s1)CCCC2 | -3.89%
16 | O=[N+]([O-])c1cc([N+](=O)[O-])c2cc3ccccc3nc2c1 | 15.6%
17 | CCN1CCN(CCCNC(=O)C2CCCN(c3nc4c(C)cc(C)cc4s3)C2)CC1 (stereo not drawn) | 1.51%
18 | CCOC(=O)c1ccc(OC(=O)CCCCCN=C(N)N)cc1.CS(=O)(=O)O | 1.72%
19 | Nc1ccccc1-c1nnc(SCc2ccccc2F)[nH]c1=O | 12.1%
20 | O=C(N/N=C/c1cccc(C(F)(F)F)c1)c1ccc(O)cc1 | 10.3%
21 | COC(=O)c1cc2occc2n1Cc1cccc(C)c1 | 7.47%
22 | CCc1ccc(C(=O)N2CCN(c3ccc(NC(=O)c4ccco4)cc3)CC2)cc1 | -0.252%
23 | Cc1ccc(CNC(=O)CCC2CCCN(Cc3c(C)nn(C(C)C)c3C)C2)o1 (stereo not drawn) | -7.5%
24 | COc1ccc(C(=O)Nc2ccnn2C2CCN(C(=O)c3cccnc3)CC2)cc1 | 16.6%
25 | COc1ccc(CCNC(=O)COC(=O)Cn2cnc3ccccc32)cc1OC | 20%
26 | Cc1ccc(C(=O)NCc2ccco2)o1 | 21.2%
27 | CCCN1C(=O)/C(=C2/C=Cc3ccccc3N2CC)SC1=S | 10.7%

Row | Compound | hERG current change (%, negative = inhibition) at 1uM
28 | COc1ccc(C2/C=C\CN(C(=O)OCc3ccccc3)CC(=O)N2Cc2ccc(F)cc2)cc1 (stereo not drawn) | 9.32%
29 | COc1ccc(S(=O)(=O)N2CCc3ccccc32)cc1C(=O)NCCc1ccccn1 | 10.1%
30 | Cc1nnc2n1N=C(c1ccc(F)cc1F)CS2 | 7.35%
31 | CCOC(=O)c1ccccc1NC(=O)COC(=O)c1ccc(C)c(S(=O)(=O)N2CCOCC2)c1 | 1.11%
32 | CCCCc1cc(=O)oc2cc(OC(C)C(=O)NCC3CCC(C(=O)O)CC3)c(Cl)cc12 (stereo not drawn) | 15.6%
33 | O=C(CSc1cccc2cccnc12)Nc1cc(C(=O)O)cc(C(=O)O)c1 | 16.2%
34 | Cc1ccc(NC(=O)CSc2nnc(-c3cnccn3)n2Cc2ccco2)cc1C | 0.115%
35 | O=C(CCN1C(=O)/C(=C/c2ccccc2Cl)SC1=S)Nc1ccccc1C(=O)O | 14.8%
36 | COc1ccc(CNC(=S)Nc2cc(C)cc(C)c2)cc1 | 7.31%
37 | O=S(=O)(Nc1cccc(-c2ccc3nncn3n2)c1)c1cccc(F)c1 | -17.3%
38 | COc1cccc(/C=N/NC(=O)CN(C)S(=O)(=O)c2ccccc2)c1OC | 6.7%
39 | Cc1ccc(C)c(S(=O)(=O)NCc2cccnc2)c1 | 10.3%
40 | COC(=O)c1[nH]c2ccccc2c1NC(=O)CN1CCN(Cc2ccc3c(c2)OCO3)CC1 | -70.3%
41 | Cc1cc(C)c(NC(=O)NC(=O)C(Cl)(Cl)Cl)c(C)c1 | 20.7%
42 | CN1C(=O)Cc2cc(S(=O)(=O)NCc3c(F)cccc3Cl)ccc21 | 18.4%
43 | CN1CCN(NC(=O)CN2C(=O)/C(=C/c3ccccc3Cl)SC2=S)CC1 | -3.93%
44 | O=C1C=C(c2ccccc2)C(O)(c2ccccc2)C1 (stereo not drawn) | 13.1%
45 | C/C(=N\OC(=O)Nc1ccccc1)c1cnn(-c2cc(C(F)(F)F)cc(C)n2)c1C | 10.8%
46 | CC(=O)c1ccc(N2CCN(S(=O)(=O)c3cccc(S(=O)(=O)N4CCOCC4)c3)CC2)cc1 | 1.36%
47 | Cc1oc(C)c2c(=O)ccc3c(c12)OC(N)=C(C#N)C3c1ccccc1 (stereo not drawn) | 11%
48 | COC(=O)Cc1csc(Nc2ccccc2Cl)n1 | 9.24%
49 | Cc1cccc(C(=O)NNC(=O)Nc2ccccc2)c1 | 7.85%
50 | O=C(NCc1cccs1)c1ccc(CS(=O)Cc2cccc(Cl)c2)o1 (stereo not drawn) | 12.6%
51 | NCCSc1c(-c2ccc(F)cc2)[nH]c2ccccc12 | 2.88%
52 | Cc1c(S(=O)(=O)N2CCC(C)CC2)c(=O)n(C)c(=O)n1C | 4.24%
53 | CC(=O)Nc1ccc(NC(=O)c2sc3nc4c(c(-c5ccc(C)cc5)c3c2N)CCC4)cc1 | 17.1%
54 | O=C1/C(=C/N(C(=O)c2ccco2)c2ccc(Br)cc2)Sc2ccccc21 | 3.48%
